# Experimental data from the supplement of paper PMC8728848.
# Some of the results follow.
# B1: CBM32-4 (Clostridium perfringens), P26831 (protein)
# chain: MGSSHHHHHHSSGLVPRGSHMASVYEPSLVDAYVGDDGAKKAVDGDLKTRVKFLGAPSTGDTIVYDLGQEILVDNLKYVVLDTEVDHVRDGKIQLSLDGETWTDAINIGDGVENGVDDMFSTPLKNGYKHGNQSGGIVPIDSAYVEGDNLNQKARYVRILFTAPYRHRWTVINELMINNGEYIPTVNDPT
# Assays:
# Experiment in all cases: glycan array binding signal (z-score within array); higher = stronger binding
# Details in all cases: glycan notation: IUPAC condensed, linker removed
# Fuc(a1-2)Gal = molecular target: Fuc(a1-2)Gal
# Procedure, shortened: (§1)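 Glycan array binding is given as a within-array Z-score, which can be read as non-binding when negative. The arrays, 3228 of them, came from the Consortium for Functional Glycomics database and were retained only where the protein sequence was available. Z-scores were averaged across arrays of the same protein sequence at different concentrations or buffers and across linkers.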
# Fuc(a1-2)Gal(b1-3)GalNAc = molecular target: Fuc(a1-2)Gal(b1-3)GalNAc
# Procedure, shortened: as §1
# [1] = molecular target: Fuc(a1-2)Gal(b1-3)GalNAc(b1-3)Gal
# Procedure, shortened: as §1
# [2] = molecular target: Fuc(a1-2)Gal(b1-3)GalNAc(b1-3)Gal(a1-4)Gal(b1-4)Glc
# Procedure, shortened: as §1
# [3] = molecular target: Fuc(a1-2)Gal(b1-3)GalNAc(b1-4)[Neu5Ac(a2-3)]Gal(b1-4)Glc
# Procedure, shortened: as §1
# Fuc(a1-2)Gal(b1-3)GlcNAc = molecular target: Fuc(a1-2)Gal(b1-3)GlcNAc
# Procedure, shortened: as §1
# [4] = molecular target: Fuc(a1-2)Gal(b1-3)GlcNAc(b1-3)Gal(b1-4)Glc
# Procedure, shortened: as §1
# [5] = molecular target: Fuc(a1-2)Gal(b1-3)[Fuc(a1-4)]GlcNAc
# Procedure, shortened: as §1
# Fuc(a1-2)Gal(b1-4)Glc = molecular target: Fuc(a1-2)Gal(b1-4)Glc
# Procedure, shortened: as §1
# Fuc(a1-2)Gal(b1-4)Glc6S = molecular target: Fuc(a1-2)Gal(b1-4)Glc6S
# Procedure, shortened: as §1
# Fuc(a1-2)Gal(b1-4)GlcNAc = molecular target: Fuc(a1-2)Gal(b1-4)GlcNAc
# Procedure, shortened: as §1
# [6] = molecular target: Fuc(a1-2)Gal(b1-4)GlcNAc(b1-3)Gal(b1-4)GlcNAc
# Procedure, shortened: as §1
# [7] = molecular target: Fuc(a1-2)Gal(b1-4)GlcNAc(b1-3)Gal(b1-4)GlcNAc(b1-3)Gal(b1-4)GlcNAc
# Procedure, shortened: as §1
# [8] = molecular target: Fuc(a1-2)Gal(b1-4)GlcNAc6S
# Procedure, shortened: as §1
# [9] = molecular target: Fuc(a1-2)Gal(b1-4)[Fuc(a1-3)]GlcNAc
# Procedure, shortened: as §1
# [10] = molecular target: Fuc(a1-2)Gal(b1-4)[Fuc(a1-3)]GlcNAc(b1-3)Gal(b1-4)[Fuc(a1-3)]GlcNAc
# Procedure, shortened: as §1
# [11] = molecular target: Fuc(a1-2)Gal(b1-4)[Fuc(a1-3)]GlcNAc(b1-3)Gal(b1-4)[Fuc(a1-3)]GlcNAc(b1-3)Gal(b1-4)[Fuc(a1-3)]GlcNAc
# Procedure, shortened: as §1
# Fuc(a1-2)Gal6S(b1-4)Glc = molecular target: Fuc(a1-2)Gal6S(b1-4)Glc
# Procedure, shortened: as §1
# [12] = molecular target: Fuc(a1-2)Gal6S(b1-4)Glc6S
# Procedure, shortened: as §1
# [13] = molecular target: Fuc(a1-2)Gal6S(b1-4)GlcNAc
# Procedure, shortened: as §1
# Fuc(a1-2)[Gal(a1-3)]Gal = molecular target: Fuc(a1-2)[Gal(a1-3)]Gal
# Procedure, shortened: as §1
# [14] = molecular target: Fuc(a1-2)[Gal(a1-3)]Gal(b1-3)GlcNAc
# Procedure, shortened: as §1
# [15] = molecular target: Fuc(a1-2)[Gal(a1-3)]Gal(b1-4)Glc
# Procedure, shortened: as §1
# [16] = molecular target: Fuc(a1-2)[Gal(a1-3)]Gal(b1-4)GlcNAc
# Procedure, shortened: as §1
# [17] = molecular target: Fuc(a1-2)[Gal(a1-3)]Gal(b1-4)[Fuc(a1-3)]GlcNAc
# Procedure, shortened: as §1
# [18] = molecular target: Fuc(a1-2)[Gal(a1-4)]Gal(b1-4)GlcNAc
# Procedure, shortened: as §1
# [19] = molecular target: Fuc(a1-2)[GalNAc(a1-3)]Gal
# Procedure, shortened: as §1
# [20] = molecular target: Fuc(a1-2)[GalNAc(a1-3)]Gal(b1-3)GlcNAc
# Procedure, shortened: as §1
# [21] = molecular target: Fuc(a1-2)[GalNAc(a1-3)]Gal(b1-4)Glc
# Procedure, shortened: as §1
# [22] = molecular target: Fuc(a1-2)[GalNAc(a1-3)]Gal(b1-4)GlcNAc
# Procedure, shortened: as §1
binder,measurement,setting,value
B1,glycan array binding signal (z-score),Fuc(a1-2)Gal,-0.523
same,glycan array binding signal (z-score),Fuc(a1-2)Gal(b1-3)GalNAc,-0.38
same,glycan array binding signal (z-score),[1],1.71
same,glycan array binding signal (z-score),[2],-0.445
same,glycan array binding signal (z-score),[3],-0.335
same,glycan array binding signal (z-score),Fuc(a1-2)Gal(b1-3)GlcNAc,-0.394
same,glycan array binding signal (z-score),[4],-0.488
same,glycan array binding signal (z-score),[5],-0.475
same,glycan array binding signal (z-score),Fuc(a1-2)Gal(b1-4)Glc,-0.357
same,glycan array binding signal (z-score),Fuc(a1-2)Gal(b1-4)Glc6S,-0.257
same,glycan array binding signal (z-score),Fuc(a1-2)Gal(b1-4)GlcNAc,-0.239
same,glycan array binding signal (z-score),[6],-0.311
same,glycan array binding signal (z-score),[7],-0.019
same,glycan array binding signal (z-score),[8],-0.104
same,glycan array binding signal (z-score),[9],-0.465
same,glycan array binding signal (z-score),[10],-0.368
same,glycan array binding signal (z-score),[11],-0.29
same,glycan array binding signal (z-score),Fuc(a1-2)Gal6S(b1-4)Glc,-0.243
same,glycan array binding signal (z-score),[12],4.3
same,glycan array binding signal (z-score),[13],-0.283
same,glycan array binding signal (z-score),Fuc(a1-2)[Gal(a1-3)]Gal,-0.4
same,glycan array binding signal (z-score),[14],-0.46
same,glycan array binding signal (z-score),[15],-0.377
same,glycan array binding signal (z-score),[16],-0.443
same,glycan array binding signal (z-score),[17],-0.467
same,glycan array binding signal (z-score),[18],-0.361
same,glycan array binding signal (z-score),[19],-0.425
same,glycan array binding signal (z-score),[20],-0.431
same,glycan array binding signal (z-score),[21],-0.227
same,glycan array binding signal (z-score),[22],-0.266
